Measurements as given in the supplement of paper PMC8285479.
Where a name gives a salt, the structure may show the parent alone. ± gives the standard deviation of the averaged measurements. The full ranking holds about 1,900 compounds; the median of “normalised cell viability (NPI; 0 = phenylarsine oxide control, 1 = DMSO control)” is about 1, and the lowest 2% start at about 0.039. Some of the results follow.

System: NCI-H1944
Experiment: normalised cell viability (NPI; 0 = phenylarsine oxide control, 1 = DMSO control) (fraction of DMSO control); NCI-H1944 is a non-small cell lung cancer line; higher = more viable cells (less compound toxicity)
Conditions: 6 days
[1] = glucocorticoid arm: hydrocortisone 2.75 uM co-treatment, compound 1 µM
[2] = glucocorticoid arm: hydrocortisone 2.75 uM co-treatment, compound 5 µM
[3] = glucocorticoid arm: hydrocortisone 2.75 uM pre-treated 2 days and continued, compound 1 µM
[4] = glucocorticoid arm: hydrocortisone 2.75 uM pre-treated 2 days and continued, compound 5 µM
[5] = glucocorticoid arm: vehicle, compound 1 µM
[6] = glucocorticoid arm: vehicle, compound 5 µM
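Also: CTB read-out in 384-well plates, mean of triplicate wells, normalised per plate against 1 µM phenylarsine oxide and 0.1% DMSO, compounds added 24 h after seeding.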

Compound | normalised cell viability [1] | normalised cell viability [2] | normalised cell viability [3] | normalised cell viability [4] | normalised cell viability [5] | normalised cell viability [6]
NC(Cc1cc(O)c(O)cc1O)C(=O)O (racemic) [6-Hydroxy-DL-DOPA] | 1 ± 0.01 | 0.965 ± 0.015 | 1 ± 0.0085 | 0.9733 ± 0.0081 | 1.001 ± 0.0081 | 1.007 ± 0.0058
O=c1[nH]oc2c1CCNC2 [THIP hydrochloride] | 0.9973 ± 0.0046 | 1.01 ± 0.024 | 1.03 ± 0.036 | 0.999 ± 0.011 | 1.003 ± 0.0058 | 1.001 ± 0.0081
CC[C@@H](CO)NC(=O)[C@@H]1C=C2c3cccc4c3c(cn4C)C[C@H]2N(C)C1 [Methysergide maleate] | 1.01 | 1.04 ± 0.032 | 1.01 ± 0.01 | 1.07 ± 0.067 | 0.9937 ± 0.0045 | 1.01 ± 0.015
CC(C)C1CNC(C(=O)O)C1CC(=O)O (stereo not drawn) [Dihydrokainic acid] | 0.9947 ± 0.0055 | 0.973 ± 0.017 | 0.9907 ± 0.0057 | 0.971 ± 0.011 | 0.9793 ± 0.0035 | 0.9803 ± 0.006
COc1cc2c(c(OC)c1OC)-c1ccc(OC)c(=O)cc1[C@@H](NC(C)=O)CC2 [Colchicine] | 0.352 ± 0.047 | 0.273 ± 0.012 | 0.9493 ± 0.0045 | 0.872 ± 0.11 | 0.0721 ± 0.007 | 0.055 ± 0.0079
COc1ccc2c(c1)[C@@]13CCCC[C@H]1[C@@H](C2)NCC3 [3-Methoxymorphinan hydrochloride] | 1.013 ± 0.0058 | 0.989 ± 0.03 | 1.02 ± 0.015 | 1.06 ± 0.058 | 1.003 ± 0.0058 | 1.01 ± 0.01
CCN(CC)C(=O)N[C@H]1C[C@@H]2c3cccc4[nH]cc(c34)C[C@H]2N(C)C1 [S(+)-Terguride] | 0.989 ± 0.011 | 1.01 ± 0.02 | 0.79 ± 0.37 | 0.996 ± 0.016 | 0.9953 ± 0.0015 | 0.993 ± 0.0056
CC(N)C(O)c1ccc(O)c(O)c1 (single isomer, unassigned; (-)) [(-)-alpha-Methylnorepinephrine] | 1.01 ± 0.012 | 0.971 ± 0.044 | 0.995 ± 0.013 | 0.958 ± 0.034 | 0.9967 ± 0.0058 | 0.9977 ± 0.0032
C/C=C(/C)C(=O)O[C@H]1C(C)=C2[C@H]([C@@H]1OC(=O)CCCCCCC)[C@@](C)(OC(C)=O)C[C@H](OC(=O)CCC)[C@@]1(O)[C@H]2OC(=O)[C@@]1(C)O [Thapsigargin] | 0.0778 ± 0.015 | 0.0411 ± 0.016 | 0.215 ± 0.062 | 0.101 ± 0.029 | 0.0393 ± 0.014 | 0.00585 ± 0.0031
C[C@]12CC[C@@H](O)C[C@@H]1CC[C@@H]1[C@@H]2CC[C@]2(C)[C@@H](C(=O)CO)CC[C@@H]12 [3-alpha,21-Dihydroxy-5-alpha-pregnan-20-one] | 1.005 ± 0.0092 | 0.998 ± 0.013 | 1.01 ± 0.022 | 1.05 ± 0.07 | 1 ± 0.011 | 1.01 ± 0.015
CCCN(CCC)C1CCc2cccc(O)c2C1 (racemic) [(±)-8-Hydroxy-DPAT hydrobromide] | 1.02 ± 0.017 | 1.01 ± 0.01 | 1.01 ± 0.01 | 1.004 ± 0.0098 | 0.9967 ± 0.0058 | 0.9947 ± 0.0067
c1ccc2c(c1)OCC(C1=NCCN1)O2 (stereo not drawn) [Idazoxan hydrochloride] | 1.002 ± 0.0068 | 1.02 ± 0.029 | 0.9917 ± 0.0057 | 1.03 ± 0.07 | 0.9787 ± 0.0023 | 0.985 ± 0.013
CCCN(CCC)[C@H]1CCc2c(F)ccc(O)c2C1 [S(-)-UH-301 hydrochloride] | 0.991 ± 0.0092 | 0.992 ± 0.025 | 0.805 ± 0.34 | 1 ± 0.028 | 1 ± 0.0084 | 0.9963 ± 0.0035
CCCN1CCC[C@@H]2Cc3n[nH]cc3C[C@H]21 [(-)-Quinpirole hydrochloride] | 0.982 ± 0.006 | 0.992 ± 0.018 | 0.867 ± 0.22 | 1.01 ± 0.016 | 0.985 ± 0.0087 | 0.9927 ± 0.0045
CCCN1CCC[C@@H]2Cc3n[nH]cc3C[C@H]21 (racemic) [(±)-Quinpirole dihydrochloride] | 1.013 ± 0.0058 | 1.01 ± 0.036 | 0.893 ± 0.19 | 1.03 ± 0.01 | 1.013 ± 0.0058 | 1.01 ± 0.011
Cc1nc(-c2ccc(-c3ccc(C(=O)N4CCc5cc6c(cc54)C4(CCN(C)CC4)CO6)cc3)c(C)c2)no1 | 0.994 ± 0.0066 | 0.356 ± 0.53 | 1.02 ± 0.02 | 1.1 ± 0.021 | 0.994 ± 0.014 | 0.00588 ± 0.0059
CC(C)c1cccc(C(C)C)c1O [Propofol] | 1.005 ± 0.0092 | 0.973 ± 0.022 | 0.994 ± 0.014 | 0.972 ± 0.031 | 1.001 ± 0.009 | 1.002 ± 0.0074
Oc1ccc2c3c1O[C@H]1[C@@H](O)CC[C@@]4(O)[C@@H](C2)N(CC2CCC2)CC[C@]314 [Nalbuphine hydrochloride] | 1.02 ± 0.01 | 1.02 ± 0.032 | 1.01 ± 0.021 | 1.03 ± 0.053 | 1.013 ± 0.0058 | 1.03 ± 0.017
O=C(O)CC[N+](=O)[O-] [3-Nitropropionic acid] | 0.9993 ± 0.0011 | 0.996 ± 0.026 | 1 ± 0.013 | 0.901 ± 0.15 | 1.01 ± 0.01 | 1.01 ± 0.011
OCc1cnc[nH]1 [4-Imidazolemethanol hydrochloride] | 1.017 ± 0.0058 | 1 ± 0.027 | 1.01 ± 0.019 | 0.995 ± 0.031 | 1.017 ± 0.0058 | 1.01 ± 0.01
CN1C[C@H](CNC(=O)OCc2ccccc2)C[C@@H]2c3cccc4c3c(cn4C)C[C@H]21 [Metergoline] | 0.986 ± 0.016 | 0.97 ± 0.015 | 0.993 ± 0.011 | 1.04 ± 0.1 | 0.9953 ± 0.0025 | 0.9993 ± 0.0093
N#CC(C#N)=Cc1cc(O)c(O)c(O)c1 [Tyrphostin 25] | 1.02 ± 0.01 | 1.02 ± 0.029 | 1.02 ± 0.015 | 1.02 ± 0.025 | 1.01 ± 0.016 | 1.023 ± 0.0058
C=CCN1CC[C@]23c4c5ccc(O)c4O[C@H]2C(=O)CC[C@@]3(O)[C@H]1C5 [Naloxone hydrochloride] | 0.998 ± 0.002 | 0.972 ± 0.019 | 0.999 ± 0.018 | 0.9913 ± 0.0071 | 0.988 ± 0.0046 | 0.998 ± 0.01
